# Test results: the BET-seq Pho4 binding data (Le et al. 2018)
# This is one part of the list. Values were computed here from the reads of four pooled replicates and scatter widely.
# Biological target: T1, Pho4 (S. cerevisiae) (UniProt P07270)
# T1 sequence: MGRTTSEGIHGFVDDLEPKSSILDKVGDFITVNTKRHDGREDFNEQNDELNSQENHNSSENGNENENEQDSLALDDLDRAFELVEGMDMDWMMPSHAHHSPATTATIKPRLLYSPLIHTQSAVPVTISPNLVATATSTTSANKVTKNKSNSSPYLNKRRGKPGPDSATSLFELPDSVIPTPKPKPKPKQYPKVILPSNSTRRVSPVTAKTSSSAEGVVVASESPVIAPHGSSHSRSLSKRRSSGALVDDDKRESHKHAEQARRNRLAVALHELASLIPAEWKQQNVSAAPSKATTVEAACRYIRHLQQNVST
# Test: relative binding free energy (BET-seq); higher = weaker binding
# Conditions: reference: library average
row,Sequence,relative binding free energy [kcal/mol]
1,CTGTTCACGTGGCTTA,0.19
2,GGTATCACGTGATAGT,0.21
3,GGCGTCACGTGAAAGT,0.25
4,CTGGACACGTGTGCTG,0.1
5,ATCTGCACGTGGTATG,-0.09
6,GATGTCACGTGTGGGC,0.2
7,AGTAGCACGTGGGGCG,-0.16
8,TATTCCACGTGATGTT,0.17
9,TTAGGCACGTGATTCT,-0.07
10,AGGTTCACGTGTGCGA,0.22
11,AGGGGCACGTGGATGA,-0.14
12,ATGTGCACGTGAGAGG,0.28
13,TGTTTCACGTGTGTGT,0.27
14,TGTTTCACGTGGTGAA,0.29
15,GAGGGCACGTGCAGTT,0.02
16,TGATGCACGTGGATCG,-0.15
17,ATTCGCACGTGGAATT,0.15
18,AGTGTCACGTGTAGGG,0.04
19,GGCTGCACGTGGATTG,0.1
20,CGTTGCACGTGTTTGC,0.02
21,TTCAGCACGTGCGTGT,-0.15
22,GTGTTCACGTGGGGCC,0.13
23,TCACTCACGTGTAGGG,0.2
24,TCATTCACGTGTTTAT,0.36
25,GGATGCACGTGCATTT,0.06

row,Sequence,relative binding free energy [kcal/mol]
1,GATTTCACGTGGTACT,0.19
2,TCCTTCACGTGTGGTT,0.35
3,GGTTCCACGTGTGCGG,0.02
4,ATAGTCACGTGGCGAG,-0.02
5,TTATGCACGTGGTGGG,-0.03
6,AAGTGCACGTGAGGAT,0.39
7,AGGTACACGTGAAGGG,0.27
8,TTTATCACGTGAGGTG,0.37
9,TCTTGCACGTGGATGT,-0.07
10,AGTAACACGTGAAGTA,0.18
11,TGGGGCACGTGATAAT,0
12,ATCAGCACGTGAGTTA,0.15
13,AATGACACGTGCGTGA,0.08
14,CATCTCACGTGTGTTG,0.2
15,TGTTGCACGTGATCTA,0.05
16,AGAAGCACGTGTTTTA,-0.14
17,TGTAGCACGTGGGGAG,-0.19
18,TAGGGCACGTGCGGTA,-0.15
19,GTGACCACGTGTTCGG,0.05
20,GTTCTCACGTGGGTGT,0.11
21,AGGGGCACGTGGTATC,-0.24
22,CGTGACACGTGGGCGG,-0.09
23,GGTGTCACGTGATTGG,0.36
24,GTTGGCACGTGCGGAT,-0.19
25,ACTGGCACGTGGACGG,0

row,Sequence,relative binding free energy [kcal/mol]
1,CTGGTCACGTGGATGA,0.1
2,CGGGCCACGTGCAGGG,-0.06
3,GGACGCACGTGATTGG,0.02
4,TTTGTCACGTGAGGAA,0.31
5,TATGACACGTGCGGGC,-0.03
6,GGCGGCACGTGTAGGA,-0.02
7,AACTGCACGTGGGGGT,-0.25
8,TTGGGCACGTGTAACA,0.05
9,GCGGGCACGTGGGTTA,-0.08
10,TCGTGCACGTGGGGGT,-0.18
11,CAGTTCACGTGTATGT,0.35
12,TGTAGCACGTGGCGCT,-0.27
13,TAGGGCACGTGTGACT,-0.05
14,TCTTGCACGTGGGGAG,-0.19
15,GTTATCACGTGTGTGA,0.32
16,GGTATCACGTGGCCGG,0.08
17,CTCTTCACGTGTTTTT,0.3
18,TTGTCCACGTGAGATG,0.42
19,GGAGGCACGTGATTTA,-0.04
20,AAAGGCACGTGAAATG,0.18
21,TTAGTCACGTGTTGCC,0.1
22,AATGTCACGTGAGTAG,0.25
23,CTCATCACGTGTGGTG,0.33
24,TATCTCACGTGTTGGG,0.18
25,GGGTTCACGTGGCGGG,0.24

row,Sequence,relative binding free energy [kcal/mol]
1,TTTATCACGTGTTCGG,0.19
2,CTTTGCACGTGTAGTG,0.05
3,CGGCTCACGTGGGGGC,-0.01
4,TTGTGCACGTGCACTG,-0.16
5,AAGTTCACGTGTGGGC,0.22
6,CAAGTCACGTGTTGTT,0.2
7,GTTTCCACGTGGAGGG,0.02
8,TTTATCACGTGGGGAA,-0.04
9,GTGTACACGTGAGGAA,0.29
10,TGCTTCACGTGGGTAG,0.05
11,GCGGGCACGTGGGATG,-0.14
12,GATGTCACGTGTATTA,0.18
13,GGATGCACGTGTAGCG,-0.07
14,GTAGTCACGTGTATTT,0.19
15,TCAATCACGTGTATGA,0.11
16,GATTTCACGTGAAATG,0.32
17,TGTGCCACGTGCGAGG,-0.17
18,TAGTTCACGTGGGCTT,0.24
19,CAAAGCACGTGGGTGG,-0.31
20,AAATACACGTGAGTGT,0.21
21,GGGAGCACGTGACGTA,0.03
22,CGTTACACGTGATGGT,0.1
23,CTTCGCACGTGGGGTG,-0.34
24,AATGACACGTGGGATA,-0.07
25,AAGTGCACGTGGCGGT,-0.17

row,Sequence,relative binding free energy [kcal/mol]
1,GGACGCACGTGTAAGT,0.1
2,TTCTTCACGTGGGCTG,0.21
3,TTCTGCACGTGGAGGC,0.1
4,CTTTTCACGTGTCTGG,0.27
5,TAGTGCACGTGGTCGT,-0.11
6,GTGTGCACGTGAGCCG,0.19
7,TTGGGCACGTGTTCGA,-0.09
8,AGGGCCACGTGGCGGG,-0.26
9,ACCGTCACGTGGTGTG,0.01
10,GTATACACGTGTGTGC,0.01
11,GCGGGCACGTGCAGAG,0.04
12,AATTACACGTGGTTCG,0.02
13,GGAGGCACGTGTTAGT,-0.08
14,CATGGCACGTGGCTGG,-0.26
15,ATACTCACGTGCGGGG,0.18
16,ATGATCACGTGTCTTT,0.12
17,ATGTTCACGTGGGACT,0.15
18,ATGTACACGTGTGGGT,0.16
19,TCGTTCACGTGTCTTT,0.39
20,TGGGTCACGTGCAATG,0.15
21,TCTTGCACGTGAGAGG,0.22
22,GATGCCACGTGAGAGG,0.3
23,TGTGGCACGTGTTCAG,-0.06
24,AATGTCACGTGACGAG,0.37
25,TTTTACACGTGCTGTG,0.24

row,Sequence,relative binding free energy [kcal/mol]
1,GAGGGCACGTGTATTG,-0.15
2,TTTTTCACGTGAGCAA,0.32
3,TGGAACACGTGGAGTG,0.02
4,TAAATCACGTGGGTTC,-0.05
5,TGTTCCACGTGGAGTT,0.06
6,TGAGTCACGTGGACTT,0.11
7,ATAGTCACGTGGGGTC,-0.01
8,AGCAGCACGTGGGGCT,-0.12
9,TCGGGCACGTGTGCTG,-0.09
10,GGGTCCACGTGGTAAG,-0.01
11,TTGTTCACGTGTGTAT,0.29
12,ATAGTCACGTGCAGGG,0.02
13,CTTAGCACGTGGTGGA,-0.11
14,TAGGACACGTGGGGTG,-0.18
15,CCCGGCACGTGGTTGG,-0.05
16,CTTGGCACGTGAGGTG,0.18
17,TTAGGCACGTGCGGAT,-0.17
18,AGCTGCACGTGAGGAG,0.28
19,AGAAGCACGTGGCTGG,-0.11
20,ATTGTCACGTGGAAGG,0.28
21,ACGTTCACGTGGGAAT,0.13
